# Results published in the supplement of paper PMC12217912.
# The list shows a part of the results. The full chains were built here from the parent and the listed change. Inactive controls read about 0.05.
# B1: TEV protease; numbered along this chain (parent)
# chain: MGESLFKGPRDYNPISSSICHLTNESDGHTTSLYGIGFGPFIITNKHLFRRNNGTLVVQSLHGVFKVKDTTTLQQHLVDGRDMIIIRMPKDFPPFPQKLKFREPQREERICLVTTNFQTKSMSSMVSDTSCTFPSGDGIFWKHWIQTKDGQCGSPLVSTRDGFIVGIHSASNFTNTNNYFTSVPKNFMELLTNQEAQQWVSGWRLNADSVLWGGHKVFMVKPEEPFQPVKEATQL
# Variants of: B1
# Test: raw area under fraction-flipped curve 0-4 h after induction (AUC4h, not background-subtracted), DNA-recorder readout of cleavage of the substrate (dimensionless); higher = more cleavage of the substrate by the protease variant
# Conditions: temperature: 34 °C; time window: 0-4 h after rhamnose induction
# Method: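 In vivo DNA recorder in E. coli TOP10(DE3) ΔrhaA at 34 °C. Each TEVp single-site mutant (parent TEVp 0) is paired with a single-site variant of the 7-mer TEVs (canonical ENLYFQ|S). The substrate sits between flexible linkers in a Bxb1-sfGFP-TEVs-SsrA fusion, so cleavage stabilises Bxb1 and speeds flipping of a recombination array, read by NGS. The value is the raw area under the fraction-flipped curve over 0-4 h after rhamnose induction (AUC4h), with ≥20 reads per time point. It is not background-subtracted; inactive controls average about 0.047.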
# 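Further: Bxb1 expression induced with 0.2% (w/v) L-rhamnose at OD600 near 0.5, cultures sampled hourly, flipped fraction per protease–substrate barcode pair counted by paired-end Illumina sequencing.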
Variant,area with substrate ENLYCQS,area with substrate ENLYDQS,area with substrate ENLYHQS,area with substrate ENLYIQS,area with substrate ENLYNQS,area with substrate ENLYPQS,area with substrate ENLYSQS,area with substrate ENLYEQS,area with substrate ENLYKQS,area with substrate ENLYLQS,area with substrate ENLYQQS,area with substrate ENLYTQS,area with substrate ENLYVQS,area with substrate ENLYWQS,area with substrate ENLYYQS,area with substrate ENLYGQS,area with substrate ENLYMQS,area with substrate ENLYRQS
MGESLFKGPRDYNPISSSICHLTNESDGHTTSLYGIGFGPFIITNKHLFRRNNGTLVVQSLHGVFKVKDTTTLQQHLVDGRDMIIIRMPKDFPPFPQKLKFREPQREERICLVTTNFQTVSMSSMVSDTSCTFPSGDGIFWKHWIQTKDGQCGSPLVSTRDGFIVGIHSASNFTNTNNYFTSVPKNFMELLTNQEAQQWVSGWRLNADSVLWGGHKVFMVKPEEPFQPVKEATQL [K120V],0.0709,0.0482,0.0583,0.118,0.0364,0.0822,0.0746,,,,,,,,,,,
MGESLFKGPRDYNPISSSICHLTNESDGHTTSLYGIGFGPFIITNKHLFRRNNGTLVVQSLHGVFKVKDTTTLQQHLVDGRDMIIIRMPKDFPPFPQKLKFREPQREERICLVTTNFQTKSMSSMTSDTSCTFPSGDGIFWKHWIQTKDGQCGSPLVSTRDGFIVGIHSASNFTNTNNYFTSVPKNFMELLTNQEAQQWVSGWRLNADSVLWGGHKVFMVKPEEPFQPVKEATQL [V126T],0.0871,0.0491,0.0741,0.134,,0.0758,,0.11,0.0552,0.0776,0.0491,0.0863,0.126,0.0608,0.103,,,
MGESLFKGPRDYNPISSSICHLTNESDGHTTSLYGIGFGPFIITNKHLFRRNNGTLVVQSLHGVFKVKDTTTLQQHLVDGRDMIIIRMPKDFPPFPQKLKFREPQREERICLVTTNFQTKSMSSMVTDTSCTFPSGDGIFWKHWIQTKDGQCGSPLVSTRDGFIVGIHSASNFTNTNNYFTSVPKNFMELLTNQEAQQWVSGWRLNADSVLWGGHKVFMVKPEEPFQPVKEATQL [S127T],0.0955,0.0839,0.0643,0.128,0.079,0.0693,,0.0652,0.061,,0.0676,0.0723,0.108,0.0913,,0.0641,0.139,
MGESLFKGPRDYNPISSSICHLTNESDGHTTSLYGIGFGPFIITNKHLFRRNNGTLVVQSLHGVFKVKDTTTLQQHLVDGRDMIIIRMPKDFPPFPQKLKFREPQREERICLVTTNFQTKSMSSMVSDTSCTGPSGDGIFWKHWIQTKDGQCGSPLVSTRDGFIVGIHSASNFTNTNNYFTSVPKNFMELLTNQEAQQWVSGWRLNADSVLWGGHKVFMVKPEEPFQPVKEATQL [F133G],0.0591,0.0656,0.0692,0.133,0.0637,,0.0743,0.0701,0.0594,0.0439,0.0785,0.0377,0.134,0.0842,,,0.0875,0.0419
MGESLFKGPRDYNPISSSICHLTNESDGHTTSLYGIGFGPFIITNKHLFRRNNGTLVVQSLHGVFKVKDTTTLQQHLVDGRDMIIIRMPKDFPPFPQKLKFREPQREERICLVTTNFQTKSMSSMVSDTSCTFPSEDGIFWKHWIQTKDGQCGSPLVSTRDGFIVGIHSASNFTNTNNYFTSVPKNFMELLTNQEAQQWVSGWRLNADSVLWGGHKVFMVKPEEPFQPVKEATQL [G136E],0.0918,0.0601,0.072,0.144,,,0.086,0.0712,0.0905,,0.0617,,0.094,0.0896,0.0451,0.0686,,0.0585
MGESLFKGPRDYNPISSSICHLTNESDGHTTSLYGIGFGPFIITNKHLFRRNNGTLVVQSLHGVFKVKDTTTLQQHLVDGRDMIIIRMPKDFPPFPQKLKFREPQREERICLVTTNFQTKSMSSMVSDTSCTFPSVDGIFWKHWIQTKDGQCGSPLVSTRDGFIVGIHSASNFTNTNNYFTSVPKNFMELLTNQEAQQWVSGWRLNADSVLWGGHKVFMVKPEEPFQPVKEATQL [G136V],0.0924,,0.0825,,0.0614,0.0751,0.0835,0.0787,0.0495,,0.0618,0.0595,0.0918,0.104,0.041,0.0799,0.0688,0.0629
MGESLFKGPRDYNPISSSICHLTNESDGHTTSLYGIGFGPFIITNKHLFRRNNGTLVVQSLHGVFKVKDTTTLQQHLVDGRDMIIIRMPKDFPPFPQKLKFREPQREERICLVTTNFQTKSMSSMVSDTSCTFPSGPGIFWKHWIQTKDGQCGSPLVSTRDGFIVGIHSASNFTNTNNYFTSVPKNFMELLTNQEAQQWVSGWRLNADSVLWGGHKVFMVKPEEPFQPVKEATQL [D137P],0.112,,,0.112,,,0.0717,,,,,,,0.106,,0.0809,,
MGESLFKGPRDYNPISSSICHLTNESDGHTTSLYGIGFGPFIITNKHLFRRNNGTLVVQSLHGVFKVKDTTTLQQHLVDGRDMIIIRMPKDFPPFPQKLKFREPQREERICLVTTNFQTKSMSSMVSDTSCTFPSGDHIFWKHWIQTKDGQCGSPLVSTRDGFIVGIHSASNFTNTNNYFTSVPKNFMELLTNQEAQQWVSGWRLNADSVLWGGHKVFMVKPEEPFQPVKEATQL [G138H],0.0953,,,0.129,,,0.0639,0.0622,,0.0724,,0.0497,,,,0.0732,,0.0597
MGESLFKGPRDYNPISSSICHLTNESDGHTTSLYGIGFGPFIITNKHLFRRNNGTLVVQSLHGVFKVKDTTTLQQHLVDGRDMIIIRMPKDFPPFPQKLKFREPQREERICLVTTNFQTKSMSSMVSDTSCTFPSGDGIFWKHWEQTKDGQCGSPLVSTRDGFIVGIHSASNFTNTNNYFTSVPKNFMELLTNQEAQQWVSGWRLNADSVLWGGHKVFMVKPEEPFQPVKEATQL [I145E],0.0613,0.0552,0.0754,,,0.0632,,0.0564,,,0.0593,,0.0773,,,0.0613,,0.0247
MGESLFKGPRDYNPISSSICHLTNESDGHTTSLYGIGFGPFIITNKHLFRRNNGTLVVQSLHGVFKVKDTTTLQQHLVDGRDMIIIRMPKDFPPFPQKLKFREPQREERICLVTTNFQTKSMSSMVSDTSCTFPSGDGIFWKHWRQTKDGQCGSPLVSTRDGFIVGIHSASNFTNTNNYFTSVPKNFMELLTNQEAQQWVSGWRLNADSVLWGGHKVFMVKPEEPFQPVKEATQL [I145R],0.0737,0.059,0.078,0.0752,0.0706,0.0506,0.052,0.0565,,0.0473,,,0.0648,0.0544,0.0513,,,0.0408
